The source gives no read counts; variants with many changes may rest on few reads.
B1: CPEB3 Ribozyme (parent)
chain: UAACAGGGGGCCACAGCAGAAGCGUUCACGUCGCAGCCCCUGUCAGAUUCUGGUGAAUCUGCGAAUUCUGCUGUAUAUCUC

Variants of: B1
Assay: self-cleavage, relative activity (ratio to wild type); higher = more cleavage; in vitro, sequencing
In short: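 Libraries of CPEB3 self-cleaving ribozyme mutants came from rounds of error-prone PCR and carried barcodes, which DNA sequencing matched to variants. In vitro transcription used T7 RNA polymerase at 37°C for 5 hours, with a further 15 min in DNase I before EDTA stopped the reaction; the ribozymes cleaved during both steps. The RNA was reverse transcribed with template switching and sequenced on Illumina. Relative activity is the cleaved/total read fraction of a variant divided by that of the unmutated ribozyme, averaged over three batches with at least 5 reads.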

Q: With UAACAGAGGGCCACAGCAGAAGCGUUCACGCCGCAGCCCCUGUCAGAAUCUGGAGAAUCUGCGAAUUCUGCUGUAUAUCUC [G7A U31C U48A U54A] as the variant, how does the self-cleavage read?
A: Its self-cleavage is 0.21.

Q: For UAACAGAGGGCCACAGCAGAAGCGUUCACGCCGCAGCCCCUGUCAGAUCCUCGUGAAUCUGCGAAUUCUGCCGUAUACCUC [G7A U31C U49C G52C U72C U78C], which self-cleavage is on record?
A: Its self-cleavage is 0.05.

Q: With UAACAGAGGGCCACAGCAGAAGCGUUCACGGCGCAGCCCCUGUCAGAUUCUGGUGAAUCUGCGAGUUCUGCCGUAUAUCUC [G7A U31G A65G U72C] as the variant, how does the self-cleavage read?
A: The self-cleavage was 0.06.

Q: Which self-cleavage does the source give for UAACAGAGGGCCACAGCAGAAGCGUUCACGUCGCAGCCCCAGUCAGGUUCUGGUGAAUCUGCGAAUACUGCUGUACAUCUC [G7A U41A A47G U67A U76C] here?
A: Its self-cleavage is 0.05.

Q: Which self-cleavage does the source give for UAACAGAGGGCCACAGCAGAAGCGUUCACGUCGCAGCCCCAGCCAGAUUCUGGUGAAUCUGCGAAUUCUGCUGUAUAUCUC [G7A U41A U43C] here?
A: The self-cleavage was 0.09.

Q: Which self-cleavage does the source give for UAACAGAGGGCCACAGCAGAAGCGUUCACGUCGCAGCCCCAGUCAGAUCCUGGUGAAUCUGCGAAUUCUGCUGUAUAUCUC [G7A U41A U49C] here?
A: The self-cleavage was 0.05.

Q: Which self-cleavage does the source give for UAACAGAGGGCCACAGCAGAAGCGUUCACGUCGCAGCCCCAGUCAGAUUCUGGAGAAUCUGCGAAUUCUGCUGUAUAUCUC [G7A U41A U54A] here?
A: Its self-cleavage is 0.06.

Q: For UAACAGAGGGCCACAGCAGAAGCGUUCACGUCGCAGCCCCAGUCAGAUUCUGGUGAAUCUGCGAAUUCCGCUGUAUAUCUC [G7A U41A U69C], which self-cleavage is on record?
A: Its self-cleavage is 0.12.

Q: For UAACAGAGGGCCACAGCAGAAGCGUUCACGUCGCAGCCCCCGUCAGAUUCUGGUGAAUCUGCGAACUCUGCUGUAUAUCUC [G7A U41C U66C], which self-cleavage is on record?
A: The self-cleavage was 0.34.

Q: With UAACAGAGGGCCACAGCAGAAGCGUUCACGUCGCAGCCCCUGACAGAUUCUGGUGAAUCUGCGAAUACUGCUGUAUAUCUC [G7A U43A U67A] as the variant, how does the self-cleavage read?
A: Its self-cleavage is 0.24.

Q: For UAACAGAGGGCCACAGCAGAAGCGUUCACGUCGCAGCCCCUGCCGGAUUCUGGUGGGUCUGCGAAUUCUGCUGUACAUCUC [G7A U43C A45G A56G A57G U76C], which self-cleavage is on record?
A: Its self-cleavage is 0.12.

Q: With UAACAGAGGGCCACAGCAGAAGCGUUCACGUCGCAGCCCCUGCCAGAUUCUGGAGAAUCUGCGAAUUCUGCUGGAUAUCUC [G7A U43C U54A U74G] as the variant, how does the self-cleavage read?
A: Its self-cleavage is 0.04.

Q: Which self-cleavage does the source give for UAACAGAGGGCCACAGCAGAAGCGUUCACGUCGCAGCCCCUGCCAGAUUCUGGUGAAACUGCGAAUUUUGCUGUAUACCUC [G7A U43C U58A C68U U78C] here?
A: Its self-cleavage is 0.09.

Q: With UAACAGAGGGCCACAGCAGAAGCGUUCACGUCGCAGCCCCUGCCAGAUUCUGGUGAAUCAGCGAAUUCUGCUGUAUAUCCC [G7A U43C U60A U80C] as the variant, how does the self-cleavage read?
A: Its self-cleavage is 0.1.

Q: Which self-cleavage does the source give for UAACAGAGGGCCACAGCAGAAGCGUUCACGUCGCAGCCCCUGUCAGACUCUGGUGAGUCUGCGAAUCCUGCUGUAUAACUC [G7A U48C A57G U67C U78A] here?
A: The self-cleavage was 0.04.

Q: With UAACAGAGGGCCACAGCAGAAGCGUUCACGUCGCAGCCCCUGUCAGAGUCUGGUGAAUCUGCGGAUUCUGCUGUAUAUCUC [G7A U48G A64G] as the variant, how does the self-cleavage read?
A: The self-cleavage was 0.09.

Q: Which self-cleavage does the source give for UAACAGAGGGCCACAGCAGAAGCGUUCACGUCGCAGCCCCUGUCAGAUACUGGUGACUCUGCGAAUUCUGCUGUAUAUCCC [G7A U49A A57C U80C] here?
A: Its self-cleavage is 0.06.

Q: With UAACAGAGGGCCACAGCAGAAGCGUUCACGUCGCAGCCCCUGUCAGAUACUGGUGAAUCCGCGAAUUCUGCUGUAUAUCUC [G7A U49A U60C] as the variant, how does the self-cleavage read?
A: Its self-cleavage is 0.06.

Q: With UAACAGAGGGCCACAGCAGAAGCGUUCACGUCGCAGCCCCUGUCAGAUCCUGGCGAAUCUGCGAAUUCUGCUGUAUAUCUC [G7A U49C U54C] as the variant, how does the self-cleavage read?
A: Its self-cleavage is 0.37.

Q: For UAACAGAGGGCCACAGCAGAAGCGUUCACGUCGCAGCCCCUGUCAGAUUCUGGAGGAUCUGCGAAUCCUGCUGUAUAUCUC [G7A U54A A56G U67C], which self-cleavage is on record?
A: The self-cleavage was 0.11.

Q: For UAACAGAGGGCCACAGCAGAAGCGUUCACGUCGCAGCCCCUGUCAGAUUCUGGCGAAUCUGCGAAUUCUGCUGUAUAACUC [G7A U54C U78A], which self-cleavage is on record?
A: Its self-cleavage is 0.17.

Q: Which self-cleavage does the source give for UAACAGAGGGCCACAGCAGAAGCGUUCACGUCGCAGCCCCUGUCAGAUUCUGGGGAAUCCGCGAAUACUGCUGUAUAUCUC [G7A U54G U60C U67A] here?
A: Its self-cleavage is 0.06.

Q: Which self-cleavage does the source give for UAACAGAGGGCCACAGCAGAAGCGUUCACGUCGCAGCCCCUGUCAGAUUCUGGUGAAUCUGCGAAGUCUGCUGUAUUUCUC [G7A U66G A77U] here?
A: The self-cleavage was 0.06.

Q: Which self-cleavage does the source give for UAACAGAGGGCCACAGCAGAAGCGUUCACGUCGCAGCCCCUGUCAGAUUCUGGUGAAUCUGCGAAUCCUGCUGUGUAUCUC [G7A U67C A75G] here?
A: The self-cleavage was 0.08.

Q: With UAACAGAGGGCCACAGCAGAAGCGUUCACGUCGCAGCCCCUGUCAGAUUCUGGUGAAUCUGCGAAUCUUGCUGUAUAUCUC [G7A U67C C68U] as the variant, how does the self-cleavage read?
A: Its self-cleavage is 0.13.

Q: For UAACAGCGGGCCGCAGCAGGAGCGUUCACGCCGCAGCCCCUGUCAGAUUCCGGUGAAUCUGCGAAUUCUGCUGUAUAUCUC [G7C A13G A20G U31C U51C], which self-cleavage is on record?
A: The self-cleavage was 0.03.

Q: Which self-cleavage does the source give for UAACAGCGGGCCGCAGCAGAAGCGUUCGCGCCGCAGCCCCUGUCAGAUUCUGGUGGAUCCGCGAAUUCCGCUGUAUAUCUC [G7C A13G A28G U31C A56G U60C U69C] here?
A: The self-cleavage was 0.09.

Q: For UAACAGCGGGCCGCAGCAGAAGCGUUCACGUCGCAGCCCCUGUCAGAUUCUGGUGAGUCUGCGAAUUCUGCUGUAUAUCUC [G7C A13G A57G], which self-cleavage is on record?
A: The self-cleavage was 0.32.

Q: With UAACAGCGGGCCGCAGCAGAAGCGUUCACUUCGCAGCCCCUGUCAGAUUCUGGUGAACCUGCGAAUUCUGCUGUAUAUCUC [G7C A13G G30U U58C] as the variant, how does the self-cleavage read?
A: Its self-cleavage is 0.14.

Q: For UAACAGCGGGCCGCAGCAGAAGCGUUCACGUCGCAACCCCUGUCAGAUUCUGGUGAAUCUGCGUAUUCUGCUGUAUAUCUC [G7C A13G G36A A64U], which self-cleavage is on record?
A: The self-cleavage was 0.05.

Q: Which self-cleavage does the source give for UAACAGCGGGCCGCAGCAGAAGCGUUCACGUCGCAGCCCCUGUCAGAUUCUGGUGAAUCUUCGAAUUCUGCUGUAUAUAUC [G7C A13G G61U C79A] here?
A: Its self-cleavage is 0.05.

Q: With UAACAGCGGGCCGCAGCAGAAGCGUCCACGUCGCUGCCCCUGUCAGAUUCUGGCGAAUCUGCGGAUUCUGCUGUAUAUCAC [G7C A13G U26C A35U U54C A64G U80A] as the variant, how does the self-cleavage read?
A: Its self-cleavage is 0.03.

Q: Which self-cleavage does the source give for UAACAGCGGGCCGCAGCAGAAGCGUUCACGUCGCAGCCCCUGUCAGAUUCUGGUGAAUCCGCGAAUUCUGCUGUAUAUCUC [G7C A13G U60C] here?
A: The self-cleavage was 0.21.

Q: For UAACAGCGGGCCUCAGCUGAAGCGUUCACGCCGCAGCCCCGGUCAGAUUCUGGUGAAUCUGCGAAUUCAGCUGUAUAUCUC [G7C A13U A18U U31C U41G U69A], which self-cleavage is on record?
A: The self-cleavage was 0.05.

Source: the RNAGym collection of RNA variant scans (doi:10.1093/nar/gkz1192)
